“And” between values parts separate entries of the source, which are not always exact repeats. Equal entries are not always repeated. The whole screen tested about 110,000 compounds, of which about 230 (0.21%) showed an effect of 50% or more. This is one part of the list.
biological target: DPAP1 (Plasmodium falciparum, UniProt Q8IIJ9); test: primary screen, percent inhibition; read by cleavage of a fluorogenic dipeptide substrate; higher = more effect of the substance; parameters: species or system P. falciparum D10 trophozoite lysates; single well
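Also: 30 min substrate incubation versus DMSO and 10 µM JCP410 controls.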

Chain of DPAP1 (Q8IIJ9 whole entry, looked up): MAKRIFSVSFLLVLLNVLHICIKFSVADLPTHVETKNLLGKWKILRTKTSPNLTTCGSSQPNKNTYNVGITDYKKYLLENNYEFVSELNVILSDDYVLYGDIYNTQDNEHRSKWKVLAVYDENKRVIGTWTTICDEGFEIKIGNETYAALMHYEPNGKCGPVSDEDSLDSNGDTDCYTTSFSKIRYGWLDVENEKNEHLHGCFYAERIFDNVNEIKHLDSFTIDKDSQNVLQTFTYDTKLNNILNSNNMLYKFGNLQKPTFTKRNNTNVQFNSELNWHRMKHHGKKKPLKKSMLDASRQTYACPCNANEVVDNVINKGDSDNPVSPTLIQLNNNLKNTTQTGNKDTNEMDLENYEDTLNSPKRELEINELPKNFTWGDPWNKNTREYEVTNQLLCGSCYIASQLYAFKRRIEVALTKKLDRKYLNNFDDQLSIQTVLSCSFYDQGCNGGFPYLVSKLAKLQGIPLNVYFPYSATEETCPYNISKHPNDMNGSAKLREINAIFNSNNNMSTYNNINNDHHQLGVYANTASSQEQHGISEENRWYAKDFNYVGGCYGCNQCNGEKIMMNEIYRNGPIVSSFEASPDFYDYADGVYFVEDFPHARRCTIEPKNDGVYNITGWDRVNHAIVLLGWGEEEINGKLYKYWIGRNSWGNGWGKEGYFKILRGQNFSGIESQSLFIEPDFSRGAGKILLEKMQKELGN

SMILES | % Inhibition @ 10 uM
COc1ccc(/C=C2\CN(C)CC3=C2OC(N)=C(C#N)C3c2ccc(OC)c(OC)c2)cc1OC (centres unmarked) | 20.7%
O=C(COc1ccccc1Cl)Nc1cc(-c2ccccc2)no1 | 0.248%
O=[N+]([O-])c1ccc(S(=O)(=O)N2CCN(Cc3ccccc3)CC2)cc1 | -0.687%
CCOC(=O)c1c(C)[nH]c(C)c1S(=O)(=O)Nc1cc(C)ccn1 | -1.24%
CCc1c(C)nc2sc(C(N)=O)c(N)c2c1C | 13.6%
CC(=O)Nc1ccc(S(=O)(=O)N2CCN(S(=O)(=O)c3ccccc3)CC2)cc1 | 0.24%
Cc1cc(OCC(=O)Nc2ccc(S(N)(=O)=O)cc2)ccc1Br | 0.727%
CN(Cc1ccco1)S(=O)(=O)c1ccc(CN2C(=O)c3cccnc3C2=O)cc1 | -4.08%
COc1cc(OC)c(OC)cc1CN1CCN(Cc2ccc(C)cc2)CC1 | 0.635%
CCOC(=O)c1c(NC(=O)c2ccccc2)sc(C(C)=O)c1C | -1.29%
Cc1ccc(C2(CC#N)CCOC(C)(C)C2)cc1 (centres unmarked) | 4.22%
Cc1cccc(CN(C)CCN(C)C)c1 | -2.18%
O=C(Nc1c(Cl)cccc1Cl)C(c1ccccc1)c1ccccc1 | 0.986%
COc1ccc(Nc2nc3nonc3nc2N2CCCCC2)cc1 | -1.64%
Cc1ccc(-c2cc3nc(-c4ccncc4)cc(C(F)(F)F)n3n2)cc1 | 0.627%
Cn1cccc1C=C1C(=O)c2ccccc2C1=O | 3.27%
CNC(=O)c1cc2c(=O)n3cc(C)ccc3nc2n(C2CCCCC2)c1=N | -1.47%
CCOc1cc(/C=C2/SC(=O)N(CC(=O)Nc3ccc(OC)cc3)C2=O)ccc1O | 21.2%
CCOc1ccc(C(=O)N2CCN(C(=O)c3ccc(OCC)cc3)CC2)cc1 | 4.37%
CN(C)C(=O)CSc1nc2ccccc2n1Cc1ccccc1 | 1.28%
COc1ccc(CNC(=O)C2CCN(c3ncnc4c3nc3n4CCCCC3)CC2)cc1 | 5.05%

SMILES | % Inhibition @ 10 uM
COc1ccc(C2=N/C(=C\c3ccc(F)cc3)C(=O)O2)c(Cl)c1 | 3.58%
Cc1ccc(C2CC(=O)N3CN(Cc4cccnc4)CSC3=C2C#N)cc1 (centres unmarked) | 43.8%
S=C(Nc1ccc2nccnc2c1)N1CCOCC1 | -6.7%
COc1ccccc1N1CCN(CC(=O)Nc2cc(N(C)C)nc3ccccc23)CC1 | 3.01%
Cc1cc(C)c(NC2=NCCCS2)c(C)c1 | 2.27%
COc1ccc(Br)cc1CNCc1c(C(=O)O)n(Cc2ccc(F)cc2)c2ccccc12 | 0.896%
CCCN1C/C(=C\c2ccc(O)c(OC)c2)C(=O)/C(=C/c2ccc(O)c(OC)c2)C1 | 1.21%
COc1ccc(NC(=O)C2=C(C)Nc3nc(-c4ccccc4)nn3C2c2ccc(O)cc2)cc1 (centres unmarked) | -7.96%
O=C(c1ccc([N+](=O)[O-])cc1Cl)N1CCN(c2ccc(F)cc2)CC1 | 7.53%
O=C(NCc1ccccc1)/C(=C\C=C\c1ccccc1)NC(=O)c1ccccc1 | -1.29%
COc1ccc(CN(Cc2ccccc2)S(=O)(=O)c2c(C)ccc3nsnc23)cc1 | 3.38%
CCC/N=c1\c(NC(=O)c2ccccc2C)c(O)oc2ccccc12 | 4.45%
O=C(NCCc1nc(-c2ccccc2)cs1)c1ccc(Br)cc1 | 0.503%
Cc1[nH]c2ccc(C(=O)NC3CCC(C)CC3)cc2c1C (centres unmarked) | 2.12%
O=C(NCCCN1CCOCC1)C1CCN(c2ncnc3c2nc2n3CCCCC2)CC1 | 2.59%
CC1(C)CC(NC(=O)C23CC4CC(CC(C4)C2)C3)CC(C)(C)N1 | 0.76%
Cn1c(=O)c2c(nc(Sc3nc4ccccc4n3Cc3ccccc3)n2C)n(C)c1=O | -2.4%
CC(C)NC(=O)c1ccc2nc(SCc3ccc(F)cc3)n(C)c2c1 | -9.67%
Cc1ccc(CCNC(=O)C2=Cc3sc(C)c(C)c3CS2)cc1 | 3.22%
O=C1NC(=O)C2(C(=O)N1)C(c1cccs1)NC(=S)NC2c1cccs1 (centres unmarked) | 6.03%
COC(=O)CCNC(c1ccccc1)c1ccccc1 | 1.64%

SMILES | % Inhibition @ 10 uM
CC(=O)N1CN(C2CCCC2)Cc2c1sc1c2CCCC1 | -2.94%
Cn1nc(C(=O)N2CCC(N3CCCCC3)CC2)c2c1-c1ccccc1S(=O)(=O)C2 | 5.04%
O=C(Cn1c(=O)c2cccn2c2cccnc21)NC1CCN(Cc2ccccc2)CC1 | 2.6%
CCc1ccc(CN(C(=O)c2nc(S(=O)(=O)CC)ncc2Cl)C2CCS(=O)(=O)C2)cc1 (centres unmarked) | -2.85%
Cc1nc2c(-c3ccc(F)cc3)c(C)nn2c(C)c1CCC(=O)NCc1ccc2c(c1)OCO2 | -0.465%
CCCCN(CCCC)S(=O)(=O)c1ccc(N2CCCC2=O)c([N+](=O)[O-])c1 | -7.42%
CCn1ncc(Br)c1C(=O)NC1CCCCCCC1 | -1.57%
O=C(NCCN1CCc2ccccc2C1)C1CCN(S(=O)(=O)N2CCC3(CC2)OCCO3)CC1 | 0.514%
Cc1ccc(S(=O)(=O)N(C)c2ccc(C(=O)Nc3ccc4c(c3)OCCO4)cc2)cc1 | 0.161%
COc1ccccc1CNCc1ccccc1C | 3.44%
N#C/C(=C\c1ccc(Br)o1)c1nc(-c2ccccc2)cs1 | 0.247%
Cc1cc(NC(=O)CSc2cn(CC(=O)N3CCOCC3)c3ccccc23)no1 | -0.264%
CCN(CC)CCCOc1cccc(C)c1C | 2.05%
O=S(=O)(NC(c1cccs1)C(Cl)(Cl)Cl)c1ccccc1 (centres unmarked) | 15.6%
Fc1ccc(CN2CCc3c([nH]c4ccccc34)C2)cc1 | 1.48%
Cc1nn(C)c2c1c(-c1ccccc1)cc(=O)n2C(C)C(=O)NCc1ccc2c(c1)OCO2 (centres unmarked) | 0.234%
CCOc1ccc(/C=C2/C=C(c3ccc(C)cc3)OC2=O)cc1OC | 1.84%
CC(C)CCNC(=O)c1cc2sccc2n1C | -8.58%
COc1cc(Cl)c(C)cc1NC(=O)c1ccccc1Cl | -3.16% and -2.29%
CN1CCC(NC2CCN(Cc3ccccc3)CC2)CC1 | 3.19%

From PMC6919601, “Identification of Plasmodium dipeptidyl aminopeptidase allosteric inhibitors by high throughput screening” (PLoS ONE, 2019)
